PMC4336329 (PLoS ONE, 2015)
About 2,200 (0.71%) of roughly 310,000 compounds showed an effect of 50% or more. Effects have a minus sign here. The list shows a part of the results.

What follows are compounds tested against human ether-à-go-go-related gene (hERG) potassium channel (human, UniProt Q12809) (assay: primary screen, population patch clamp on CHO cells stably expressing hERG).
human ether-à-go-go-related gene (hERG) potassium channel, sequence (Q12809 whole entry, looked up): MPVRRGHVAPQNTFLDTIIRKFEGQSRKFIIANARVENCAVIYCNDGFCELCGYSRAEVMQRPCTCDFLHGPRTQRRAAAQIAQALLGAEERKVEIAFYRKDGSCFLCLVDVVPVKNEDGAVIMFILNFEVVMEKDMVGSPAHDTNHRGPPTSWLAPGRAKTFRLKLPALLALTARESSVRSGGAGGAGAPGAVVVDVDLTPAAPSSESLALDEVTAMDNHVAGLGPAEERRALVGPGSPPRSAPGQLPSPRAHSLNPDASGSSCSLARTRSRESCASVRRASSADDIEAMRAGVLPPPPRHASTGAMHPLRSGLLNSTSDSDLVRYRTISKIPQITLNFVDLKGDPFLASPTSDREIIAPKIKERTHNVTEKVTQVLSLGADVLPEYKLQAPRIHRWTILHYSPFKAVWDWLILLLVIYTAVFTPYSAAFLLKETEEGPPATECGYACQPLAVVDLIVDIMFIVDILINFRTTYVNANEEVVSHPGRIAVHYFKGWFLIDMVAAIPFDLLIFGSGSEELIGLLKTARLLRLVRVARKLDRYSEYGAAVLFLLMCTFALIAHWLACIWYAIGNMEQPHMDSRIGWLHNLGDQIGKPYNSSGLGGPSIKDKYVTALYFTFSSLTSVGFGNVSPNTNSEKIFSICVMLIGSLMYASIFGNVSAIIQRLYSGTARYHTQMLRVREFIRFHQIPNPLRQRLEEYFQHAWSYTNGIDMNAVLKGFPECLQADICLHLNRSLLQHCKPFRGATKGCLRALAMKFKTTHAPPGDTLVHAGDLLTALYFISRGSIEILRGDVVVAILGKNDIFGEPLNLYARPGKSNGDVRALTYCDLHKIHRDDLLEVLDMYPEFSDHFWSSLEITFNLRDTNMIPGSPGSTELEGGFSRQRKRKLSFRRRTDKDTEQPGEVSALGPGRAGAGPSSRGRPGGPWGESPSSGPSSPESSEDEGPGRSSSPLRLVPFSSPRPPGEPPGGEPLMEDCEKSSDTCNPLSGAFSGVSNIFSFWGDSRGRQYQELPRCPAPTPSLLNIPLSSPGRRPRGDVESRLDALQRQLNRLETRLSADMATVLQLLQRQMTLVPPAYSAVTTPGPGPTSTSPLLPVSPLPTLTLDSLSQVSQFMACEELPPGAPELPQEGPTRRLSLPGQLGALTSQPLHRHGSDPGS

SMILES	hERG current change (%, negative = inhibition) at 1uM
COc1cc(OC)c2c(c1C(CCN1CCOCC1)c1ccc(N(C)C)cc1)OC(=O)CC2c1ccc(N(C)C)cc1 (stereo not shown)	11.2%
CCOC(=O)N1CCN(C(=S)Nc2cc(S(=O)(=O)N3CCOCC3)ccc2Cl)CC1	10.3%
c1ccc(-n2c(-c3ccncc3)nnc2-c2ccco2)cc1	-0.483%
COc1ccc(N2CCN(CCNC(=O)c3nnc(Cc4c(F)cccc4Cl)o3)CC2)cc1	16.7%
Cc1c(NC(=O)/C=C/c2cn(-c3ccccc3)nc2-c2ccccc2)c(=O)n(-c2ccccc2)n1C	4.86%
COc1ccc(C(=O)NCC(=O)N2CCNC(=O)C2)cc1OC	12.5%
CC1(C)CC(=O)/C(=C\c2cccc([N+](=O)[O-])c2)C(C)(C)N1	11.8%
COC(=O)c1ccc(NC(=O)c2ccc(NC(=O)C3CCCO3)cc2)cc1 (stereo not shown)	5.5%
Cc1cccc(NC(=O)CN2C(=O)CNC2=O)c1	11.4%
C/C(=N\NC(N)=S)c1ccc2c(c1)OCCO2	14%
Cc1ccc2c(c1)sc1nc(=O)n(-c3ccc(Cl)cc3)c(=O)n12	3.37%
COc1ccccc1OCCNC(=O)C1CCCCC1	13%
CCCCCCCCS(=O)c1sc2nc3c(cc2c1N)CCCC3 (stereo not shown)	16.1%
COc1cc(Cl)ccc1OCc1cc(C(=O)N(C)Cc2nnc(C)o2)no1	10.9%
CCOc1ccc2nc(SCC(=O)N(CC(C)C)c3c(N)n(Cc4ccccc4)c(=O)[nH]c3=O)[nH]c2c1	9.81%
COc1ccccc1C(=O)NCC(=O)NCCC(c1ccccc1)c1ccccc1	-46.4%
CC(C)(C)NC(=O)CN(Cc1ccc(F)cc1)C(=O)Cn1nnc(-c2ccc(F)cc2)n1	6.31%
COc1ccc(N(CC2CO2)S(=O)(=O)c2ccc(C)cc2)cc1 (stereo not shown)	13.7%
COc1cccc(C(=O)Nc2nc3ccccc3s2)c1	4.68%
Cc1cccc(OCCCC(=O)N2CCCCCC2)c1C	12.9%
Cc1nn(-c2ncc(C(F)(F)F)cc2Cl)c(=O)n1-c1ccccc1F	1.93%
O=C(CCn1nnc2ccccc2c1=O)N[C@@H](Cc1c[nH]c2ccccc12)C(=O)O	11.6%

SMILES	hERG current change (%, negative = inhibition) at 1uM
O=C(NCCc1ccc(Cl)cc1Cl)c1cncc(Br)c1	9.91%
CCOc1ccc(Cc2c(Cl)nc(N)nc2Cl)cc1	12.9%
CCOc1ccc(N(C(=O)CNS(=O)(=O)c2ccccc2)C(CC)C(=O)NCc2ccco2)cc1 (stereo not shown)	4.35%
CCCC(NC(=O)c1ccccc1)c1nc2ccccc2n1Cc1ccc(C(=O)OC)o1 (stereo not shown)	1.44%
CC1CCN(S(=O)(=O)c2ccc(NC(=O)C3CC(=O)N(c4ccccc4)C3)cc2)CC1 (stereo not shown)	14.8%
COc1cccc(C(=O)NC2CCN(CC(=O)Nc3c(C)cc(C)cc3C)CC2)c1	9.75%
O=C(c1ccccc1Cl)N1CCC(O)(c2cccnc2)CC1	10.3%
O=C(COC(=O)C1CCC1)NCc1ccc(F)cc1	14.2%
CCN1CCCC1CNC(=O)Cn1nc(C)n2c(cc3cc(F)ccc32)c1=O (stereo not shown)	14.8%
O=c1[nH]c(=O)n(Cc2ccccc2)c2nc(-c3cccs3)n(CCO)c12	6.81%
Cc1ccc(C(=O)NC(=S)Nc2ccc(N3CCOCC3)cc2)c(C)c1	3.56%
CC(=O)N(c1ccccc1C)C1CCCC1	12%
COc1cc(NC(=O)/C=C/c2ccccc2[N+](=O)[O-])cc(OC)c1	10.6%
CN(CC(=O)Nc1ccc(N2CCOCC2)cc1)C(=O)c1cc(F)c(F)cc1Cl	-7.87%
CCOc1ccccc1NC(=O)C1CCC(CNc2c(N3CCOCC3)c(=O)c2=O)CC1 (stereo not shown)	6.67%
CN(Cc1cccs1)C(=O)COc1ccc(-c2nnco2)cc1	18.5%
CCc1ccc(OCCOCC(O)CNC(C)(C)C)cc1.Cl (stereo not shown)	3.37%
Cc1cccc(C(=O)NCCNC(=O)c2ccco2)c1	14.2%
O=C(OCC(=O)N1CCc2ccccc21)c1ccccn1	10.7%
COc1cccc2c(C)c(C(=O)O)[nH]c12	0.894%
CC(c1ccccc1F)n1cc(C(=O)NCCc2ccco2)nn1 (stereo not shown)	8.31%
O=C(Nc1ccccn1)c1ccc(Cl)s1	2.93%

SMILES	hERG current change (%, negative = inhibition) at 1uM
CC(=O)C1C(c2ccc(F)c(F)c2)NC(=O)NC1(O)C(F)(F)F (stereo not shown)	11.4%
O=C(COc1ccc(F)c(Cl)c1)c1ccc[nH]1	6.57%
N#CC1=C(N)Oc2n[nH]c(-c3ccccc3)c2C1c1cccnc1 (stereo not shown)	12.9%
COc1cccc(N2CCN(c3ccc4nnc(CCC(=O)N5CCC(C)CC5)n4n3)CC2)c1	-21.1%
CCN1C(=O)c2cccc3c(S(=O)(=O)NCc4ccccc4)ccc1c23	5.16%
CCn1c(SCC(=O)N(C)CC(=O)Nc2ccc(F)c(F)c2F)nnc1-c1ccco1	13.9%
COc1ccc(-n2c(C)c([N+](=O)[O-])c3ccc(O)c(CN(C)C)c32)cc1	-17.9%
Cc1ccc(Sc2cc(C(F)(F)F)nc(N(C)C)n2)cc1	6.22%
CC(=O)Nc1ccc2c(c1)ncn2-c1ccc(C)cc1	0.47%
COCc1ccc(CN2CCC(Oc3ccc(C(=O)NCc4ccccn4)cc3)CC2)o1	17.6%
O=C(Cc1ccc(NC2=NC3CS(=O)(=O)CC3S2)cc1)NCc1ccccc1Cl (stereo not shown)	14.4%
COc1ccc(C(=O)N/C(=C/c2cccnc2)C(=O)Nc2cccc(C(C)=O)c2)cc1OC	8.63%
COc1ccc(-c2nc(NC(=O)c3[nH]c(C)c(C(C)=O)c3C)sc2C)cc1	8%
Cc1cc(Nc2ccccc2)nc(N)n1	5.79%
c1cncc(-c2nc(NCc3ccc4c(c3)OCO4)c3ccccc3n2)c1	8.36%
COc1cc(Cl)cc2c1Sc1ccccc1/C2=C/CCN(C)C.O=S(=O)(O)O	2.22%
COc1ccc(NC(=O)Cn2c(=O)n(CCC(=O)NCC3CCCO3)c(=O)c3cc(OC)c(OC)cc32)cc1 (stereo not shown)	9.89%
Cc1occc1C(=O)NNC(=O)c1nn(C)c(=O)c2ccccc12	12.5%
O=S(=O)(c1cccc2nonc12)N1CCN(c2ccc(F)cc2)CC1	5.98%
Cc1ccc(OCC(=O)Oc2cccc(C)c2)cc1	20%
Cn1cnnc1SCC(=O)Nc1ccc(Cl)cn1	8.94%
O=C1N(c2cccc(Cl)c2)C(c2cccnc2)N2CCCN12 (stereo not shown)	6.2%

SMILES	hERG current change (%, negative = inhibition) at 1uM
CCOc1cc(/C=C/C(=O)O)ccc1OCCOc1ccc(F)cc1	6.66%
Fc1ccc(NC(=S)N2N=CCC2c2ccccc2)cc1 (stereo not shown)	-19.7%
Cc1ccc(S(=O)(=O)N(C)C)cc1NC(=O)COC(=O)CSc1ccccc1	16.9%
COc1cccc(C(=O)Nc2ccc(C(=O)NCC(C)C)cc2)c1	14.1%
CCC(c1nc2ccccc2c(=O)n1CCN1CCOCC1)N1C(=O)c2ccccc2C1=O (stereo not shown)	-3.14%
CSc1ccc(/C=C(\NC(=O)c2ccco2)C(=O)N2CCCCC2)cc1	-1.75%
COc1ccccc1-c1nnc(NC(=O)OCC(C)C)s1	10.2%
COC(=O)c1ccccc1S(=O)(=O)N1CCC(C(=O)N(C)CCOc2ccccc2)CC1	22%
CCCc1nc2scc(-c3ccc(C)cc3)c2c(=O)n1N	14.9%
CCOCCOCN(C#N)c1nc(OC)nc(N(C)C)n1	9.67%
COc1ccc(O)c(C(=O)c2cc(C(=O)NCCc3ccccc3)c(=O)n(CCc3ccccc3)c2)c1	6.92%
O=C(Nc1ccc(N2CCOCC2)cc1)c1ccc(Cl)cc1N1CCCC1=O	3.25%
O=C(N/C(=C\c1ccc(Br)cc1)C(=O)N1CCOCC1)c1ccccc1Cl	2.42%
CCOC(=O)CN(C(=O)CNC(=O)c1ccco1)C(C(=O)NC1CCCCC1)c1cccc(OC)c1 (stereo not shown)	13%
Cc1onc(-c2ccccc2)c1C(=O)N/N=C/c1cc2c(cc1Br)OCO2	10.4%
CCN(CC(=O)NCc1cccs1)S(=O)(=O)c1c(F)cccc1F	15.2%
CCOc1ccc(N2CC(=O)N/C2=N\c2nc(C)cc(C)n2)cc1	-2.01%
CCc1ccc(C(=O)N2CCC(c3nc4ccccc4s3)CC2)cc1	-27.1%
COC(=O)NNC(=S)Nc1ccc(Br)cc1	-2.32%
Cc1ccc2cc(CN(c3ccccc3)S(=O)(=O)c3ccccc3)c(=O)[nH]c2c1	4.99%
Cc1cc(NC(=S)N(Cc2ccc(Cl)cc2)Cc2ccc(C(=O)O)cc2)ccc1Cl	5.9%
COc1ccc2c(c1OC)C(=O)NC(C)=C(C(=O)OC(C)(C)C)C2O (stereo not shown)	12.4%
